# Results from PubChem BioAssay AID485344 (National Center for Advancing Translational Sciences (NCATS), 2010).
# Hit rate of the full screen: of about 340,000 compounds, about 6,900 (2%) were called active. Cut-off read from the data, not from the text of the source: active = inhibition above about 30%; inactive = below that, where a call was filed. The list shows a part of the results, in another mix than the full data. Entries without a call were filed so in the source.
# Biological target: D(2) dopamine receptor (Homo sapiens) (UniProt P14416)
# Test: HTS Assay for Allosteric Antagonists of the Human D2 Dopamine Receptor: Primary Screen for Antagonists; note: 0% is about no effect
# Conditions: HEK293 TREx D2 cells, calcium flux, dopamine EC80; at 10 µM; stronger effect = higher value
# In short: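 Cells plated overnight at 30 C with tetracycline; no-wash calcium dye, 30–90 min RT; 10 s baseline; compound pinned; 180 s read; EC80 dopamine added; another 180 s read.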
# Sequence of UniProt P14416 (P14416 whole entry, looked up): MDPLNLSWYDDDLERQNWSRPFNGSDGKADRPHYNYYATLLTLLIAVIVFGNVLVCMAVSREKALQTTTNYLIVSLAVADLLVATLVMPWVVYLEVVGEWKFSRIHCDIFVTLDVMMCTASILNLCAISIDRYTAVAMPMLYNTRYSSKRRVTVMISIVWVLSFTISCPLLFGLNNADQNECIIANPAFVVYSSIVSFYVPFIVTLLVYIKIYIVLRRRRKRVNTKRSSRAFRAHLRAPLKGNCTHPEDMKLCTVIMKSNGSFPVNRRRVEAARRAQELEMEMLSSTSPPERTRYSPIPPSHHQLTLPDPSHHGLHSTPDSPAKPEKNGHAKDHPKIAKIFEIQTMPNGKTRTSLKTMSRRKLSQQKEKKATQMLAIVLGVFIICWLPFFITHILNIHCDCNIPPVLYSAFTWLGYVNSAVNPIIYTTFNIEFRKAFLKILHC
row,SMILES,inhibition
1,CCc1nnc(NC(=O)CSc2nc3c([nH]c4ccccc43)c(=O)n2-c2cc(C)cc(C)c2)s1,-0.681%
2,CC1CCCCN1Cc1c(O)ccc2c(=O)c(-c3cccc(Cl)c3)c(C(F)(F)F)oc12 (centres undefined),13.1%
3,O=C(NCCc1ccccc1)c1ccc2c(c1)N(Cc1ccccc1Cl)C(=O)c1ccccc1S2,14.7%
4,COc1ccc(-c2nc3scc(CCNS(=O)(=O)c4ccc(F)cc4F)n3n2)cc1OC,8.71%
5,Cc1ccc(C)c(NC(=O)CCN2CCc3ccccc3C2)c1,active: 31.3%
6,CC(C)NC(=O)Nc1ccc2c(c1)N(C)C(=O)c1ccccc1S2,-9.81%
7,COc1ccccc1CNC(=O)C(Cc1ccccc1)NS(=O)(=O)c1ccc2c(c1)oc(=O)n2C (centres undefined),-8.87%
8,CN1CCN(c2nc(NCc3ccco3)nc(N)c2[N+](=O)[O-])CC1,active: 77.2%
9,Cc1ccc(-c2nc3c(c(SCC(=O)N4CCCCC4)n2)Cc2cc(C)ccc2O3)cc1,-4.68%
10,CCc1ccc(-c2nc(CSCC(=O)NCc3ccccc3OC)c(C)o2)cc1,9.99%
11,CCn1c(CNC(=O)c2ccc(OC)cc2)nnc1SCC(=O)Nc1ccc(OC)cc1,-8.21%
12,Cc1ccccc1CNC(=O)C(C)n1nc(C)n2c(cc3occc32)c1=O (centres undefined),-5.66%
13,COc1ccc(CC(=O)Nc2nc3c(s2)CC(C(C)(C)C)CC3)cc1 (centres undefined),-10.3%
14,COc1ccc(NC(=O)C2=CC(c3cccs3)=NS(=O)(=O)N2C)cc1,-19.1%
15,Cc1ccc(NC(=O)CN2C(=O)CCSc3ccc(S(=O)(=O)N4CCCC4)cc32)cc1,-7.73%
16,COc1ccc(CCN=CC2=C(O)CC(C)(C)CC2=O)cc1,active: 31.4%
17,CCOC(=O)c1ccc(CN(Cc2ccccc2)S(=O)(=O)c2ccc(C)cc2)cc1,-2.8%
18,COc1ccc(CCC(=O)NC2CC(=O)N(c3ccc(C)cc3)C2)cc1 (centres undefined),-1.88%
19,Cc1cccc(C(=O)Nc2ccc(-c3nc4ccccc4s3)cc2Cl)c1,11.1%
20,CCCCNC(=O)C(CC)Sc1nnc(-c2cccc(F)c2)c(-c2cccc(F)c2)n1 (centres undefined),2.32%
21,COc1ccc2oc(=O)cc(CN3CCN(c4ccc(F)cc4)CC3)c2c1,-13.9%
22,CCCCOC(=O)c1ccc(Nc2ncnc3[nH]ncc23)cc1,-13.6%
23,CC(=O)Nc1c(C)nn(-c2ccccc2)c1N1CCC(C(=O)NCc2ccc(Cl)cc2)CC1,-1.53%
24,Cc1cc(C)cc(N2CC(c3nc(-c4ccccc4C)no3)CC2=O)c1 (centres undefined),7.02%

row,SMILES,inhibition
1,Cc1cccc(NC(=O)Cn2c(=O)n(-c3ccccc3Cl)c(=O)c3c(C)c(C(=O)N(C)C)sc32)c1,8.48%
2,CCOC(=O)c1ccc(NC(=O)CN(c2ccc(C)cc2)S(=O)(=O)c2c(C)noc2C)cc1,0.978%
3,Cc1nc2c(C(=O)NCCc3ccc(Cl)cc3)cnn2c(C)c1Cc1c(F)cccc1Cl,-0.742%
4,O=C(NCc1ccccc1Br)c1ccc2nc(N3CCCCC3)sc2c1,2.51%
5,CC(C)CNC(=S)NC1CC2CCC(C1)N2Cc1ccccc1 (centres undefined),active: 89.9%
6,CC(Nc1ccc(-c2nc(-c3ccncc3)no2)cc1[N+](=O)[O-])c1ccccc1 (centres undefined),-4.42%
7,CCCCN(CCCC)C(=O)CN(C)S(=O)(=O)c1ccc2c(c1)c(=O)n(C)c(=O)n2C,-5.2%
8,Cc1sc2c(c1C)c(=O)n(CCc1ccccc1)c(=O)n2Cc1cccc(F)c1,-18.2%
9,O=C(C1CCC1)N1CCc2cc(S(=O)(=O)NCCN3CCN(c4ccccc4F)CC3)ccc21,active: 52.7%
10,COc1cccc(NC(=S)N(CCCN2CCC(C)CC2)Cc2cccs2)c1,active: 59.1%
11,Cc1ccc(-n2c(=O)c3c(c4cc(C)ccc4n3C)n(CC(=O)NCc3ccccc3Cl)c2=O)cc1,-14.2%
12,O=C(Nc1cc(F)ccc1F)C1CCN(c2nc3ccccc3n3cccc23)CC1,0.917%
13,CC1(C)CSC(=NCc2ccccc2)N1C(=O)c1cccc([N+](=O)[O-])c1,active: 54.1%
14,COc1cc(CNCc2ccc(OC)c3ccccc23)cc(OC)c1OC,active: 33%
15,CC(=O)NCCNC(=O)CCCc1nnc2n(C)c(=O)c3sccc3n12,4.51%
16,CC(C)(C)C(=O)/C=c1\s/c(=C\c2ccc(-c3ccc([N+](=O)[O-])cc3)o2)c(=O)n1CC(=O)NC(N)=O,active: 90.9%
17,COc1ccc(CNC(=O)c2cc3cc(C)ccc3n2C)cc1,3.51%
18,Cc1ccc(SC[C@H](c2ccccc2)N2CCN(C)CCC2=O)cc1,active: 37.6%
19,O=C(NCc1cccs1)c1ccc2c(c1)N(Cc1ccccc1Cl)C(=O)c1ccccc1S2,0.361%
20,COc1ccc(-c2cc3nc(C)c(CCC(=O)N4CCN(c5cccc(Cl)c5)CC4)c(C)n3n2)c(OC)c1,1.46%
21,Cc1ccccc1-c1ncnn1-c1sc2c(c1C#N)CCCCC2,9.47%
22,COc1ccc(-c2cc(C(=O)OCC(=O)c3ccc(C)cc3)c3cccc(Cl)c3n2)cc1,-6.48%
23,CC(C)Cn1c(=O)c2ccccc2n2c(CCC(=O)NCc3ccccc3Cl)nnc12,-9.99%
24,COc1ccc(NC(=O)Cn2c(=O)n(-c3ccccc3)c(=O)c3c4c(sc32)CCCC4)cc1,1.73%

row,SMILES,inhibition
1,Cc1cc(C)cc(Nc2cc(-c3ccccc3)nc(C)n2)c1,2.33%
2,CCCCN(C)c1nnc(NC(=O)Nc2cccc(C(C)=O)c2)s1,9.55%
3,Cc1ccc(NC2=CC(c3ccccc3F)N(c3ccc(C)cc3)C2=O)cc1 (centres undefined),-7.83%
4,C=CCOC(=O)C1=C(C)OC(N)=C(C#N)C1c1c(C)nn(-c2ccccc2)c1Cl (centres undefined),active: 44%
5,O=S(=O)(c1ccccc1)c1nnn2c1nc(NCc1cccs1)c1sccc12,7.58%
6,Cc1ccc2oc(C(=O)Nc3c(C(=O)Nc4ccccc4)oc4ccccc34)cc(=O)c2c1,0.213%
7,CCCOc1ccc(N2CC(C(=O)Nc3cccc(Cl)c3Cl)CC2=O)cc1 (centres undefined),8.07%
8,CCOc1ccc(CCNC(=O)CN2C(=O)COc3ccc(S(=O)(=O)N4CCC(C)CC4)cc32)cc1,-11.3%
9,Cc1ccc(NC(=O)CCn2cccn2)cc1Cl,3.62%
10,Cc1nn(CC(=O)NCCc2ccc(Cl)cc2)c(=O)c2cc3cc(F)ccc3n12,10.5%
11,Cc1ccc(-n2nc3c(N4CCC(C(=O)N5CCCCC5)CC4)nnc(C)c3c2C)cc1,-4.97%
12,Cc1ccc(NC(=O)CCc2nnc3n(CC(C)C)c(=O)c4ccccc4n23)cc1C,8.73%
13,CCCc1cc(N2CCN(c3cc(Cl)ccc3C)CC2)n2cnnc2n1,9.13%
14,COc1ccc(CNC(=O)Cn2nc(C)c3nn(-c4ccc(Cl)cc4)c(C)c3c2=O)cc1,1.91%
15,COc1ccc(-c2cc(NCc3ccc(F)cc3)n3cnnc3n2)cc1,0.179%
16,O=C(Nc1cccc(Cl)c1)Nc1c[nH]c(=O)[nH]c1=O,active: 34.3%
17,Cc1cc(OCC(=O)NCC2(N3CCN(C)CC3)CCCCC2)cc(C)c1Cl,-1.2%
18,COc1cc(C(=O)NC(c2ccccc2Cl)c2cc(Cl)c3cccnc3c2O)cc(OC)c1OC (centres undefined),3.95%
19,CC(=O)Nc1ccc(NC(=O)c2cc(CN3CCCC3)on2)cc1,4.18%
20,COc1ccc(NC(=O)CSc2oc(-c3ccco3)nc2S(=O)(=O)c2ccc(C)cc2)c(OC)c1,5.8%
21,CCOc1ccc(NC(=O)Cn2c(=O)n(CC3CCC(C(=O)NCCc4ccccc4)CC3)c(=O)c3ccccc32)cc1 (centres undefined),9.15%
22,COc1ccccc1C(=O)Nc1cccc(C(=O)OCc2cc(=O)n3c4c(sc3n2)CCCC4)c1,-0.785%
23,CN(C)S(=O)(=O)c1ccc2c(c1)N(CC(=O)Nc1cccc(C(F)(F)F)c1)C(=O)CS2,9.55%
24,Cc1onc(-c2ccccc2Cl)c1C(=O)Oc1ccccc1F,7.26%

row,SMILES,inhibition
1,CC(C)(C)OC(=O)N1CCC(N2CCN(Cc3ccccc3)C(=O)C2=O)CC1,6.38%
2,CCOc1ccc(NC(=O)C(CC(C)C)N2Cc3ccccc3C2=O)cc1 (centres undefined),-2.94%
3,CCOC(=O)c1ccccc1NC(=O)NCc1c(-n2cccc2)sc2c1CCCC2,-2.86%
4,CCn1ccc2c(OCC(=O)Nc3ccc(C)c(Cl)c3)cccc2c1=O,-6.81%
5,COc1cccc(N2CCN(C(=O)CCSCc3ccccc3F)CC2)c1,26.1%
6,CCN(CC)c1cc(C)c2cc(NC(=O)c3cc(OC)cc(OC)c3)ccc2n1,0.193%
7,Cc1cccc(C(=O)Nc2c(C(=O)N3CCN(c4ccc(F)cc4)CC3)oc3ccccc23)c1,4.96%
8,CCOC(=O)C1CCN(S(=O)(=O)c2cc3c4c(c2)C(C)C(=O)N4CCC3)CC1 (centres undefined),-3.67%
9,Cc1cc(=O)n(Cc2c(F)cccc2Cl)c2c1c(C)nn2-c1cccc(F)c1,6.11%
10,O=C(Cc1ccc(Cl)cc1)NCC(c1cccs1)S(=O)(=O)c1ccccc1 (centres undefined),15%
11,Cc1ccc(S(=O)(=O)N(CC(=O)Nc2ccc(F)cc2F)Cc2ccc(F)cc2)cc1,-5.74%
12,COc1ccc(CNC(=O)CC2N=C3c4ccccc4N=C(SCC(=O)Nc4ccc(C(C)C)cc4)N3C2=O)cc1 (centres undefined),-7.11%
13,COC(=O)CCCn1c(-c2ccc(C)cc2)c(C)n2c3c(=O)n(C)c(=O)n(C)c3nc12,0.922%
14,COc1ccc(-c2cn3c(n2)sc2cc(C(=O)NC(C)C45CC6CC(CC(C6)C4)C5)ccc23)cc1 (centres undefined),17.2%
15,COc1cc([N+](=O)[O-])ccc1NC(=O)c1nc2ccccc2n(C)c1=O,-3.26%
16,COCc1cc(C)nc2sc3c(c12)NC(c1ccccc1C(=O)O)N(c1cccc(C(F)(F)F)c1)C3=O (centres undefined),-3.28%
17,O=C(CSc1nnc2[nH]c(=O)cc(-c3ccccc3)n12)Nc1ccc(OC(F)(F)F)cc1,-17.4%
18,Cc1csc2nc(COC(=O)c3cccc(NC(=O)COc4ccccc4Cl)c3)cc(=O)n12,16.7%
19,OC(CCCN1CCCCC1)(c1ccccc1)c1ccccc1,active: 80.1%
20,COCCCNC(=O)c1nn(C)c2c1CS(=O)(=O)c1ccccc1-2,13.2%
21,CCc1cccc(NC(=O)Cc2nc(-c3ccc(OC)cc3)no2)c1,-9.17%
22,Cc1ccc(CNC(=O)CCSCc2cnn(-c3ccccc3)c2-n2cccc2)cc1,12.6%
